Whole data set: some 110,000 compounds, median “z-score” near -0.1, cut for the highest 2% near 2. Some of the results follow.
These compounds were tested against Metabotropic glutamate receptor 8 (Rattus norvegicus) (UniProt P70579) (assay: rat mGluR8 modulators via GIRK flux, primary screen, cell-based, thallium flux, HTS (AID 488969)). Settings: HEK293 rat mGluR8, GIRK (G protein-gated inwardly rectifying potassium channel) thallium flux, FluoZin2; at 10 µM; stronger effect = higher value; submaximal glutamate (EC20) added with thallium.
Chain of UniProt P70579 (P70579 whole entry, looked up): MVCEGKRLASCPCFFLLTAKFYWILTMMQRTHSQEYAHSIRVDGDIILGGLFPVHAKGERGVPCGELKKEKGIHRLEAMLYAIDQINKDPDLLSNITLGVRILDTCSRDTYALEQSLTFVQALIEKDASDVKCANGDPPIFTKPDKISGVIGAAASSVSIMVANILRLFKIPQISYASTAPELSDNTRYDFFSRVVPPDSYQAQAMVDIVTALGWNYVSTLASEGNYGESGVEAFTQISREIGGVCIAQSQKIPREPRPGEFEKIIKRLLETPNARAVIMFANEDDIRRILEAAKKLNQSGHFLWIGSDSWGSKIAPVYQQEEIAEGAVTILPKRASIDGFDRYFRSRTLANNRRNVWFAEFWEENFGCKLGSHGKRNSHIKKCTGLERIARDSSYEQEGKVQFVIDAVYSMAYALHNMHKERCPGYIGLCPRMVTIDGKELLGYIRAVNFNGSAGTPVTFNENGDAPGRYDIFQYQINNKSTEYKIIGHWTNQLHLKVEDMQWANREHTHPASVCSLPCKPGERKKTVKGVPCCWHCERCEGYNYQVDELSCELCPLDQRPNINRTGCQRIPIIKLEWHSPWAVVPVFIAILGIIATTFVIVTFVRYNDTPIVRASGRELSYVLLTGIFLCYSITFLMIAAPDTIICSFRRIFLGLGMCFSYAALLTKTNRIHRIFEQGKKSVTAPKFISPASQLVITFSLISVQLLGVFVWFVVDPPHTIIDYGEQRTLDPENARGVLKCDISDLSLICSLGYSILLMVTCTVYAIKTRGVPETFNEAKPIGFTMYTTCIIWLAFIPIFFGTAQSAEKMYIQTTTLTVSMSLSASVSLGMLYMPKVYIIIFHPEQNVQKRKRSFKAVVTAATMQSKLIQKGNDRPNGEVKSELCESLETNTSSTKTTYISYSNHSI
For `CC(C)OC(=O)CSc1nnc(Cc2ccccc2)n1C`, the z-score was 0.089. `COc1ccc(S(=O)(=O)NCC2CCC(C(=O)N3CCC4(CC3)OCCO4)CC2)cc1` (configuration not stated) was tested, and the z-score was 0.151. `Cc1cccc(Nc2ncnc3nc[nH]c23)c1` showed a z-score of -1.32. `Cc1ccc(-n2ccc(=O)c(-c3ccnc(SCc4cccc(Cl)c4)n3)n2)cc1` was tested, and the z-score was -0.44. Work on `O=C1C(C=NCCCn2ccnc2)=C(O)c2ccccc21` yielded a z-score of 0.584. For `O=C(C1CC1)N1CCc2cc(S(=O)(=O)NCC3COc4ccccc4O3)ccc21` (configuration not stated), the z-score was -0.226. In the case of `COc1ccccc1CN1C(=S)SC(C)(C)C1NO` (configuration not stated), the z-score is reported as 0.222. With `CCCOc1cccc(C2C(C(=O)c3ccco3)=C(O)C(=O)N2CCN(CC)CC)c1` (configuration not stated) the z-score was -0.0948. `COc1ccc(Cc2noc(-c3ccc(C)cc3)n2)cc1` was tested, and the z-score was -0.249. In the case of `O=C(/C=C/c1cccc([N+](=O)[O-])c1)Nc1ccc(NC(=O)c2cccs2)cc1`, the z-score is reported as -0.0819. `CCOc1ccc(C(=O)CCNC(Cc2cnc[nH]2)C(=O)O)cc1` (configuration not stated) gave a z-score of 0.0942. `CC1CCCCC12NC(=O)N(CC(=O)NC(=O)NCc1ccco1)C2=O` (configuration not stated) showed a z-score of 0.146. `COc1ccc(OC)c(NS(=O)(=O)c2ccc3c(c2)CCC(=O)N3)c1` was tested, and the z-score was 0.486. Compound `Cc1ccc(F)cc1NC(=O)c1ccc2c(c1)OCO2` has a z-score of -1.03. Compound `COc1ccc(CC(=O)NNC(=O)CSc2nnc(C)n2-c2ccccc2)cc1` has a z-score of -0.315. Compound `O=C(NCC1CCCO1)c1ccc(C(=O)NCC2CCCO2)cc1` (configuration not stated) has a z-score of -0.42. In the case of `CCOC(=O)c1[nH]c(COC(=O)C2CC(=O)N(Cc3ccccc3)C2)c(C(=O)OCC)c1C` (configuration not stated), the z-score is reported as 0.937. `COc1cccc(-c2csc(N3CCN(C(=O)Nc4ccccc4OC)CC3)n2)c1` was tested, and the z-score was -1.93. In the case of `CN(C(=O)COC(=O)CNC(=O)c1sc2ccccc2c1Cl)c1ccccc1`, the z-score is reported as -0.854. `CC1CCN(C(=O)CSc2nnc(-c3cccnc3)n2C2CCCCC2)CC1` showed a z-score of -0.0482. With `CCC(NS(=O)(=O)c1ccc(C)cc1)C(=O)Nc1ccc(NC(C)=O)cc1` (configuration not stated) the z-score was -0.511. Work on `c1ccc(-c2nc(-c3cccnc3)n[nH]2)cc1` yielded a z-score of -0.151. Compound `O=C1COc2ccc(C(=O)CSc3nnnn3-c3ccccc3)cc2N1` has a z-score of -0.145. `O=c1c2ccccc2cnn1Cc1n[nH]c(=S)n1-c1cc(Cl)cc(Cl)c1` was tested, and the z-score was -0.202. Work on `CCOCC(=O)Nc1c(C(=O)OCC)oc2ccccc12` yielded a z-score of -0.215. With `CC(C)CC(=O)Nc1cccc(-c2cn3ccsc3n2)c1` the z-score was -0.363. Compound `COC(=O)c1cccc(COC(=O)CNC(=O)c2ccco2)c1` has a z-score of 0.209. `CCc1nc(-c2ccccc2)cc(=O)[nH]1` showed a z-score of 0.128. In the case of `CCOC(=O)c1cc(-c2nnc(-c3cc(OC)c(OC)c(OC)c3)o2)c(C)nc1C`, the z-score is reported as -1.54. `CC(C)OCC(O)CN1CCN(CC(O)COc2ccc3c(c2)OCO3)CC1` (configuration not stated) showed a z-score of -0.199. `CCCOc1ccc(N2C(=O)CC(N(Cc3ccc(S(N)(=O)=O)cc3)C(=O)CC)C2=O)cc1` (configuration not stated) was tested, and the z-score was -0.33. `O=C(NC(NNc1ccc([N+](=O)[O-])cc1)(C(F)(F)F)C(F)(F)F)c1ccc(F)cc1` gave a z-score of 0.544. `COCCCNC(=S)NC(=O)c1ccc(C)cc1` showed a z-score of 0.374. `COc1cc(OC)cc(-n2nnnc2SCC(=O)Nc2nc3c(s2)CCCC3)c1` gave a z-score of -0.0609. `Brc1ccc(-n2c(SCc3nc4ccccc4[nH]3)nnc2-c2ccncc2)cc1` gave a z-score of -0.268. In the case of `COc1cc(C(=O)NCC(C)C)cc(OC)c1OC`, the z-score is reported as 0.133. `N=C1/C(=C\c2ccc(-c3cccc(Cl)c3)o2)C(=O)N=C2SC=C(c3ccccc3)N12` was tested, and the z-score was 1.17. With `C=CCC1(O)C(=O)Nc2ccccc21` (configuration not stated) the z-score was 0.132. With `COc1cccc(CNC(=O)CCS(=O)(=O)c2cccs2)c1` the z-score was -0.296. With `O=C(c1cccs1)N1CCN(c2ncccn2)CC1` the z-score was 0.404. `Cc1ccc(-c2nnc(SCC(=O)NNC(=O)COc3cccc(C)c3)n2C)cc1` was tested, and the z-score was -0.489. `COc1ccccc1-n1cnnc1SCC(=O)c1ccc[nH]1` showed a z-score of -0.135. For `O=C(CSc1n[nH]c(-c2cccs2)n1)N1CCCc2ccccc21`, the z-score was -0.328. Work on `Cc1ccc(CNS(=O)(=O)NCc2ccccc2)cc1` yielded a z-score of -0.102. Compound `O=C(Cn1cnc2ccccc2c1=O)Nc1nnc(C2CC2)s1` has a z-score of -0.0222. `CCOC(=O)CSC1=C(C#N)C(c2ccc(Cl)cc2)CC(=O)N1` (configuration not stated) showed a z-score of -0.248. Compound `O=C(COC(=O)C1(c2ccccc2F)CCCC1)N1CCOCC1` has a z-score of 0.0595. `Cc1cc(/C=N/n2cnnc2)c(O)c([N+](=O)[O-])c1` was tested, and the z-score was -0.354. `COc1cccc(C(=O)OCn2nnc3ccccc3c2=O)c1` was tested, and the z-score was -0.0785. `CS(=O)(=O)c1ccc2nc(NC(=O)CCC(=O)c3cccs3)sc2c1` was tested, and the z-score was 1.3. For `COc1ccc(CCNC(=O)c2cc(-c3cc(C)ccc3O)n[nH]2)cc1OC`, the z-score was -0.296. `CC1Cc2cc(/C(O)=C3/C(=O)C(=O)N(CCCn4ccnc4)C3c3ccncc3)ccc2O1` (configuration not stated) was tested, and the z-score was -0.018. `COc1ccc(CN(CCCN2CCOCC2)C(=O)Nc2cccc(Cl)c2)cc1OC` gave a z-score of -0.305. With `Cc1ccc2nc(-c3ccccc3)c(NC(=O)c3ccco3)n2c1` the z-score was 0.31. Work on `COC(=O)CSc1nc(-c2ccc(C)cc2)c2c(c1C#N)CCCC2` yielded a z-score of 0.0112. In the case of `O=C(NCc1cccs1)C1CCN(S(=O)(=O)c2cccc3cccnc23)CC1`, the z-score is reported as -0.219. `Cc1cc(-c2nnc(SCC(=O)c3ccc4c(c3)OCCO4)o2)no1` showed a z-score of 0.263. For `O=C(c1cnn2c(C(F)(F)F)cc(-c3ccc(Br)cc3)nc12)N1CCOCC1`, the z-score was -1.01. In the case of `Cc1cccc(OC(=O)n2c(=S)oc3cc(Cl)ccc32)c1`, the z-score is reported as 0.209. Work on `CC(Oc1ccccc1)C(=O)Nc1ccc(C(N)=O)cc1` (configuration not stated) yielded a z-score of 0.297. Compound `O=C(CSc1ncn[nH]1)N1CCN(S(=O)(=O)c2ccc(Cl)cc2)CC1` has a z-score of -0.0408. `C=CCn1c(SCC(=O)Nc2ccc(NC(=O)c3ccco3)c(OC)c2)nnc1-c1ccncc1` was tested, and the z-score was -0.214. In the case of `CN(c1ccc(C(=O)N2CCN(Cc3ccc4c(c3)OCO4)CC2)cc1)S(=O)(=O)c1ccccc1`, the z-score is reported as -0.273. For `Cc1ccccc1NC(=O)Cn1c(NCC(C)O)nc2ccccc21` (configuration not stated), the z-score was 0.126. For `Cc1ccc(-n2nnnc2SCC(=O)c2cc(C)n(-c3cc(C)on3)c2C)cc1`, the z-score was 0.105. `CNc1nc(SC)nc2ccsc12` gave a z-score of -0.136. Work on `Clc1ccc(Cl)c2sc(N3CCOCC3)nc12` yielded a z-score of -0.141. `O=[N+]([O-])c1cc(F)c(N2CCCCC2)cc1N1CCOCC1` gave a z-score of -0.193. Work on `CCN(CC)C(=O)CSc1nnc(-c2ccc(O)cc2)n1CC1CCCO1` (configuration not stated) yielded a z-score of 0.0105. `O=C(NCCO)c1cc2ccccc2c(=O)s1` gave a z-score of 0.822. With `Cc1ccc(Nc2nnc(SCC(=O)c3ccc(Br)s3)s2)c(C)c1` the z-score was 1.06. For `CCOC(=O)c1sc(=S)n(-c2cccc(OC)c2)c1N`, the z-score was 0.326. `CCC(C)[C@H](NC(=O)OC(C)(C)C)C(=O)N/N=C/c1cccc2nccnc12` (some centres not stated) gave a z-score of 0.114. With `CCc1ccccc1NC(=O)c1ccccc1Sc1ccc([N+](=O)[O-])cc1Cl` the z-score was 0.165. `Cc1ccc(NC2=NCCCCC2)cc1` was tested, and the z-score was -0.722. Compound `CC(C)(C#N)Nn1cnnc1` has a z-score of -0.406. For `COc1ccc(C2(CNC(=O)c3cccc([N+](=O)[O-])c3)CCOCC2)cc1OC`, the z-score was -0.337. For `Cc1cc(C(=O)NC(=S)Nc2cccc(NC(=O)C(C)C)c2)ccc1[N+](=O)[O-]`, the z-score was 0.315. In the case of `O=S(=O)(c1ccc(Br)cc1)N1CCN(c2ccc3nnc(-c4ccccc4)n3n2)CC1`, the z-score is reported as -0.455. Work on `CCOc1ccc(NCc2cc3c(C(C)(C)C)nn(-c4ccccc4)c3[nH]c2=O)cc1` yielded a z-score of -0.079. `C=CCSc1nc2c(c(C3CC=CCC3)c1C#N)CCC2` (configuration not stated) gave a z-score of 0.459. In the case of `Clc1ccc2c(N3CCCC3)ccnc2c1`, the z-score is reported as 2.36. Compound `O=[N+]([O-])c1ccc(Cl)c(/C=N/n2c(C3CCCCC3)n[nH]c2=S)c1` has a z-score of -1.39. With `CCOc1ccc(OCC)c(S(=O)(=O)NCc2ccc3c(c2)OCO3)c1` the z-score was 0.112. With `CC(Oc1ccc(Cl)cc1Cl)C(=O)Nc1ccc(N2CCN(C)CC2)cc1` (configuration not stated) the z-score was -0.0257. In the case of `CCN(CC)C(=O)CSc1nc(-c2ccco2)cc(C(F)(F)F)c1C#N`, the z-score is reported as -0.446. `COc1ccccc1OCC(=O)NCCSCc1ccc(Cl)cc1` showed a z-score of -0.896. Work on `COc1ccc(NC(=O)CN(C)S(=O)(=O)c2ccc(Cl)cc2)cc1Cl` yielded a z-score of -0.376. Compound `COc1cc(OC)c(OC)cc1C=NCC1(c2ccccc2)CCCC1` has a z-score of 0.915. Work on `Cc1ccc2nc(-c3ccc(SCC(=O)Nc4nnc(C)s4)nc3)[nH]c2c1` yielded a z-score of -0.316. `O=C(NC1=NCCS1)c1ccc(Br)s1` gave a z-score of -0.212. Work on `CCOc1ccc(S(=O)(=O)NCCCN2CCOCC2)cc1` yielded a z-score of 0.0775. In the case of `CC1CCCC(NC(=O)COC(=O)c2ccccc2NC(=O)c2ccco2)C1C` (configuration not stated), the z-score is reported as -0.294. In the case of `CCOc1ccc(C(C)(C)C)cc1S(=O)(=O)N1CC(C)OC(C)C1` (configuration not stated), the z-score is reported as -0.263. `O=C(Cc1ccc(Cl)cc1)Nc1ccccc1CO` gave a z-score of 0.184. In the case of `Cc1cc(C)n(-c2nc3ccccc3nc2N2CCC(C)CC2)n1`, the z-score is reported as -0.57. `COc1cccc(NC(=O)CSCc2n[nH]c(=O)[nH]2)c1` was tested, and the z-score was -0.182. With `Cc1cc(NC(=O)CSc2ccc3ccccc3c2)no1` the z-score was 0.118. In the case of `CC1CCC/C(=N\NC(=O)COc2ccc(Cl)cc2Cl)C1` (configuration not stated), the z-score is reported as 1.13. Work on `Cn1c(=O)oc2cc(S(=O)(=O)N3CCN(c4ccc(F)cc4)CC3)ccc21` yielded a z-score of 0.0473. `NS(=O)(=O)c1ccc(NC(=O)C2CCCO2)cc1` (configuration not stated) gave a z-score of -0.087. `O=C(O)CC1=C(O)C(=O)N(c2ccccc2)C1c1ccc(Br)cc1` (configuration not stated) showed a z-score of 0.0277. For `CCC(C)NS(=O)(=O)c1ccc(S(=O)(=O)N(CCc2ccc(OC)c(OC)c2)Cc2cccs2)cc1` (configuration not stated), the z-score was -0.265. Work on `C=C(C)CSc1nc2nc(C)cc(C)n2n1` yielded a z-score of -0.0365. For `CCOC(=O)CSc1nsc(SCC(=O)OCC)c1C#N`, the z-score was -1.22. `CCn1c(=O)n(CC)c2cc(S(=O)(=O)NCCOc3ccccc3)c(C)cc21` showed a z-score of 0.0374. `CS(=O)(=O)N(CC(=O)NCC1CCCO1)Cc1ccc(Cl)cc1` (configuration not stated) showed a z-score of 0.0219. Work on `Cc1ccc(N=C2NC(=O)/C(=C/c3cccs3)S2)cc1C` yielded a z-score of -0.323. Work on `Oc1ccc(-c2nc3ncccn3c2Nc2ccc3c(c2)OCO3)cc1` yielded a z-score of -0.386. `c1ccc(-c2ncnc3nc4n(c23)CCC4)cc1` showed a z-score of 0.408. Compound `C(=N\n1cnnc1)/c1cccn1-c1ccccc1` has a z-score of 0.848. `COc1ccccc1C1/C(=C(\O)c2c(C)nc3c(C)cccn23)C(=O)C(=O)N1CCCN(C)C` (configuration not stated) gave a z-score of -0.521.

Reference: PubChem BioAssay AID488969 (Vanderbilt High Throughput Screening Facility, 2010)
